Values joined by “and” are separate entries in the source; they are usually repeats but may differ in a detail not shown here. Equal values may be shown once. Hit rate of the full screen: of about 360,000 compounds, about 17,000 (4.7%) were called active. Inconclusive means that the source gave no clear call. Such entries were picked first, then a sample of the others. Rule as the data show it: active = activity change below about -50%; inconclusive = mostly about -30% to -49%; inactive = weaker than that. Where a structure was tested more than once in an assay, its records may differ in their call.
test: qHTS for Inhibitors of Inflammasome Signaling: IL-1-beta AlphaLISA Primary Screen; settings: THP-1 LPS/ATP IL-1B secretion, 16 h; at 57.5 µM, hits give low values
Outline: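 Secreted IL-1B measured by AlphaLISA bead assay after 16 h compound exposure of THP-1 cells; compounds (final up to 57.5 uM) added 1 h before LPS (250 ng/mL) and ATP (1.25 mM) stimulation; lower signal means less secretion.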
% is scaled to controls: 0 for no effect and ±100 for the full control effect.

Structure (SMILES) | activity change
O=C(Nc1nccs1)c1ccc(S(=O)(=O)NCC2CCCCC2)cc1 | inactive: -19.3%
Cc1cccc(-c2nnc(SCC(=O)C(C)(C)C)n2C)c1 | inactive: -3.97%
CSC1(SC2=NCCN2)SC2(NCCN2)S1 | inconclusive: -39%
O=C(CN1CCN(c2ccccn2)CC1)Nc1ccc(F)c(F)c1 | inactive: 14.5%
Cc1ccc(S(=O)(=O)N(CC(O)CN2CCCCC2)c2cccc([N+](=O)[O-])c2)cc1 (centres undefined) | inconclusive: -40.5%
CCN(c1ccccc1)S(=O)(=O)c1cc(C(=O)NCC(c2ccc(OC)cc2)N(C)C)ccc1C (centres undefined) | active: -74.2%
Cc1ccc(NC(=O)CS(=O)CC(=O)NC2CCN(Cc3ccccc3)CC2)c(C)c1 (centres undefined) | inconclusive: -34.4%
CCCCn1nnnc1C(c1ccccc1)N1CCc2ccccc2C1 (centres undefined) | inactive: 17.1%
Cc1ccc(C)c(NS(=O)(=O)c2cc(C(=O)Nc3ccccc3-c3ccccc3)ccc2C)c1 | inconclusive: -37.6%
Cc1ccc(C)c(N2CCN(C(=O)c3ccc4nsnc4c3)CC2)c1 | inconclusive: -37.1%
COc1ccc(NC(=O)N(Cc2cc3cc(C)ccc3[nH]c2=O)CC2CCCO2)cc1 (centres undefined) | inconclusive: -40.3%
CCOC(=O)CC(=O)CSc1nc2c(sc(=S)n2-c2ccc(C)c(C)c2)c(=O)[nH]1 | inactive: -3.93%
Fc1ccc(N2CCN(c3ncnc4c3nnn4Cc3ccccc3Cl)CC2)cc1 | inactive: -10.4%
CCn1c(/N=C/c2ccccc2O)nc2ccccc21 | inactive: 6.64%
COc1ccc(C(=O)/C(=C\c2ccco2)N2C=CC=CC2=C(C#N)C#N)cc1 | active: -95.9%
CC(C)NC(=O)[C@]1(C)CCC[C@@]2(C)C3CC[C@@]4(C)C[C@]3(CCC21)CC4=O (some centres undefined) | inactive: 17%
Cc1csc(=Nc2ccccc2)n1CCCN1CCCC1=O | inactive: 9.73%
COc1cccc(C(NC(C)=O)c2nc(-c3ccccc3C)cs2)c1 (centres undefined) | inactive: 20.8%
CCc1nc2ccc(C(=O)NCCc3c[nH]c4ccccc34)cn2c1N(C)CCCc1ccccc1 | inconclusive: -46.8%
Nc1nc(COc2ccc3ccccc3c2)cs1 | inconclusive: -30.7%
Cc1ccn2c(Nc3ccccc3C)c(-c3ccncc3)nc2c1 | active: -88.7%
COc1ccc(Cl)cc1C(=O)Nc1ccc2c(c1)OCCO2 | inconclusive: -37.1%
C(#CCN1CCCC1)CC(c1ccccc1)c1ccccc1 | active: -63.9%

Structure (SMILES) | activity change
Cc1ccc(NC(=O)CCCCCN2C(=O)[C@@H]3Cc4ccccc4CN3C2=O)c(C)c1 | inconclusive: -37.8%
COc1ccc(NC(=O)C(Cc2ccccc2)n2cccc2)cc1 (centres undefined) | active: -73.2%
Cc1ccc(CN2CCN(/N=C/c3ccc(Cl)c([N+](=O)[O-])c3)CC2)cc1 | active: -73.7%
Cc1ccc(S(=O)(=O)CCC(=O)Nc2nc(-c3ccncc3)cs2)cc1 | inconclusive: -39.3%
Clc1ccc(NCc2cccnc2)c(Cl)c1 | active: -59.5%
CCN(CC)Cc1c(O)ccc2c(=O)c(-c3ccc4c(c3)OCCO4)coc12 | inactive: 0.569%
O=C(Nc1cccc2nsnc12)c1ccc2c(c1)OCCO2 | inconclusive: -35.1%
CC(C)CNC(=O)C1(C)CCCN1C(=O)C(C)(C)Oc1ccc(Cl)cc1 (centres undefined) | inactive: 41.7%
Cc1cc(Cl)ccc1NC(=S)NCC(C)C | inactive: -4.18%
CCC(=O)c1ccc(OCC(O)CNCCc2ccc(Cl)cc2)cc1 (centres undefined) | inconclusive: -36.4%
CCC(C)(C)n1nnnc1C(c1ccccc1)N1CCN(C2CCCC2)CC1 (centres undefined) | inactive: 13.7%
CC(C)CNc1ncnc2[nH]ncc12 | inactive: 37%
CC(=O)Nc1ccc(OS(=O)(=O)c2ccccc2C)cc1 | inactive: -2.32%
CNc1ccc(Br)cc(C(=O)/C=C/c2ccc(OC)cc2OC)c1=O | inconclusive: -36.4%
Cc1ccc(CSCCNC(=O)CSc2ccccc2)cc1 | inactive: -23.5%
Cc1ccc(NC(=O)C2(NC(=O)c3cccc(N4C(=O)CSC4c4ccccc4)c3)CCCCC2)cc1 (centres undefined) | inconclusive: -32.8%
O=C(Cc1cccc2ccccc12)N1CCN(c2ncccn2)CC1 | inactive: 17.7%
Cn1nc(-c2ccccn2)nc2c(=O)n(C)c(=O)nc1-2 | active: -93.6%
Cc1cc(SCC(=O)N(C)C2CCCCC2)nc2ccccc12 | inactive: -21.5%
N#C/C(=C\c1cccc([N+](=O)[O-])c1)c1ccccn1 | active: -88.1%
Cc1ccc(/C=C2\SC(=S)N(CCC(=O)NNS(=O)(=O)c3ccc(C)cc3)C2=O)cc1 | inactive: -1.56%
OC[C@@H]1CN(Cc2cccc(C(F)(F)F)c2)C[C@H](n2cnc3c(NCc4ccc(F)cc4)ncnc32)O1 | inactive: -24.7%
COc1ccc(NC(=S)Nc2cc(-c3ccccc3)[nH]n2)cc1Cl | inconclusive: -33.2%

Structure (SMILES) | activity change
O=C(COc1ccc(Cl)cc1)N1CCN(Cc2ccc3c(c2)OCO3)CC1 | active: -50.9%
COc1ccc(C(=O)c2sc(Nc3ccccc3)nc2C)cc1 | active: -70.1%
CCC(C)Sc1cc(-c2nc3ccccn3c2NC2CCCCC2)ccc1OC (centres undefined) | active: -50.2% and active: -91.3%
COc1ccc(C)cc1NC(=O)CCc1c(C)nn(-c2ccc(N3CCCCC3)nn2)c1C | inconclusive: -39.6%
Cc1csc(NC(=O)CCn2c(=O)sc3ccccc32)n1 | inactive: -13.5%
O=C(OCN1C(=O)c2ccccc2C1=O)c1ccc(Cl)nc1 | inactive: 9.5%
Cc1ccc(CCNC(=O)C2CCCN(S(=O)(=O)c3c(C)noc3/C=C/N(C)C)C2)cc1 (centres undefined) | inactive: -21.2%
O=C(NCCC1CCCCN1S(=O)(=O)c1ccccc1)C(=O)Nc1ccc(F)cc1F (centres undefined) | inconclusive: -41.4%
CCN(CC)CCNc1ccc(CO)c2sc3ccccc3c(=O)c12 | active: -105%
Cn1c(-c2ccccc2)c(/C=N/NC(=O)c2cccnc2)c2ccccc21 | inactive: -27.9%
Cc1c(-c2ccccc2)sc(N)c1C(=O)N1CCOCC1 | inactive: -15.8%
CCCCCn1nc(C(=O)OCc2nc(N)nc(Nc3ccccc3)n2)c2ccccc2c1=O | inconclusive: -42.5%
N#Cc1nc(-c2ccc(OCc3ccccc3)cc2)oc1NCCCn1ccnc1 | inconclusive: -47.2%
COc1ccc(CN(C)C(=O)c2ccccc2Sc2ccccc2C#N)c(OC)c1 | inconclusive: -33.8%
Cc1c(C(=O)N2CCCCC2)c(S(=O)(=O)NCc2ccc(N(C)C)cc2)c(C)n1C | inconclusive: -47.2%
CC(=O)c1sc(NC(=O)CCS(=O)(=O)c2ccc(C)cc2)nc1C | active: -107%
COc1cc(/C=C/C(=O)c2c(O)ccc3c(C)cc(=O)oc23)ccc1O | active: -79.7%
C(=C\c1ccccc1)/CN1CCN(C(CCc2ccccc2)c2nnnn2C2CCCC2)CC1 (centres undefined) | inconclusive: -30.1%
CCn1cc([N+](=O)[O-])c(C(=O)Nc2ccc(Br)cn2)n1 | inconclusive: -38.1%
COC(=O)c1cn(NC(=O)c2ccc(F)cc2)c(=O)c2ccccc12 | inconclusive: -31.4%
Cc1ccc(NC(=O)C2CCC(C(C)(C)C)CC2)cc1S(=O)(=O)N1CCOCC1 (centres undefined) | inconclusive: -43.7%
O=C(Nc1ccccc1)Nc1cccc(Cl)c1 | inconclusive: -39.8%
COc1cccc(C(=O)Nc2ccccc2C(=O)NCC2CCCO2)c1 (centres undefined) | inconclusive: -45%

Structure (SMILES) | activity change
CCOC(=O)C1=C(C)NC(SCC(=O)Nc2cc(C)on2)=C(C#N)C1c1cccs1 (centres undefined) | inconclusive: -44.6%
COc1ccc(/C=N/n2cnc3c([nH]c4ccc(Br)cc43)c2=O)cc1CN1CCOCC1 | active: -88.1%
O=C(CSc1nc(-c2ccccc2)c(-c2ccccc2)[nH]1)N1CCN(S(=O)(=O)c2ccccc2)CC1 | inconclusive: -48.6%
COc1cc(/C=C2\OC(=O)c3c(OC)cccc32)ccc1O | inconclusive: -43.6%
O=C([O-])c1cc(-c2ccccc2)cc(-c2ccccc2)[n+]1CCc1ccc(Cl)cc1 | inconclusive: -49%
CNC(=O)C1CN(C(=O)c2nn(Cc3ccccc3)c(=O)c3ccccc23)c2ccccc2O1 (centres undefined) | inconclusive: -45.3%
COc1ccc(-c2oc(=O)n(C)c2-c2ccc(OC)cc2)cc1 | inconclusive: -43.8%
Oc1ccc(/C=N/Nc2ncc(Cl)cc2Cl)cc1 | inconclusive: -36.1%
O=C(NCCOc1ccccc1)c1cccc(S(=O)(=O)NCc2ccccc2)c1 | inconclusive: -39.6%
CSc1ccccc1C(=O)Nc1cc([N+](=O)[O-])ccc1C | inactive: -5.33%
CCN(c1cccc(C(F)(F)F)c1)S(=O)(=O)c1ccc2c(c1)CCN2C(=O)C1CC1 | inconclusive: -41.9%
COc1ccccc1CNc1nc(NCc2ccc(C)cc2C)c2sccc2n1 | active: -79.6%
O=c1cc2c(nn1Cc1ccc(Cl)cc1Cl)-c1ccccc1CC2 | inconclusive: -38.1%
O=C(Nc1cccc(NC(=O)c2ccc([N+](=O)[O-])o2)c1)c1ccco1 | active: -89.6%
CCCC(=O)Nc1ccc(-c2csc(N/N=C\c3ccncc3)n2)cc1 | inconclusive: -43.9%
CCCc1nnc(NC(=O)c2cccnc2)s1 | inconclusive: -33.9%
CCN(CC)C(=O)C1=C(C)N(CCCOC)C(=O)C(CC(=O)NCc2ccco2)C1 (centres undefined) | inactive: -8.14%
CCCCOc1ccc(C(=O)NNC(=S)NC(=O)CC)cc1 | active: -96.1%
Cc1cc(=O)oc2cc(OCC(=O)NCc3ccco3)ccc12 | inconclusive: -42%
COc1ccc(-c2nc(Cn3c(SCc4cccc(F)c4)nc4ccncc43)c(C)o2)cc1OC | inconclusive: -41.5%
